Source: PubChem BioAssay AID651595 (National Center for Advancing Translational Sciences (NCATS), 2012)
In all, about 1,100 compounds went through this assay and fewer than 10 were called active. This list was built around the results that the source calls inconclusive (neither active nor inactive); the mix of calls is not that of the screen. Calls follow the shape of the dose curve; as a rule, active = well fitted cell-killing curve with a large enough effect; inconclusive = small, poorly fitted or top-dose-only effect; inactive = flat fitted curve, though single readings scatter. Where the call is inconclusive, the potency comes from a doubtful curve fit.

Assay: qHTS of Nrf2 Activators: Hit Validation in Cytotox Assay;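 also: compound exposure lasted 24 hours before the ATP readout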; as to activity change, negative = cytotoxicity: 0% is about no effect
Details: Cell viability counter-screen for Nrf2 activator hits; series mostly up to 46.1 µM; activity change, negative = cytotoxicity: at the top concentration
From the text: Many diseases have some form of oxidative stress injury and ties to inflammation, causing a host of problems for the patient. The antioxidant response element (ARE) plays an important role in alleviating the harmful effects of oxidative stress. The antioxidant response element (ARE) is a transcriptional regulatory element involved in the activation of genes coding for a number of antioxidant proteins and detoxifying enzymes. These enzymes work in concert to protect tissues from oxidative insults and chemical toxicities in human hepatocytes and immune cells. The protective effects of ARE activation are primarily triggered through Nrf2 (NF-E2-related factor) binding to and activating AREs. It is known that Nrf2 controls the production of over 250 antioxidant and detoxification proteins (Hu et al., 2006), thereby protecting tissues by increasing cellular antioxidant content and suppressing inflammatory signaling pathways. The transcription factor Nrf2 is a central link between oxidative chemicals, such as phenolic antioxidants and electrophilic compounds, and the activation of ARE. Nrf2 levels are constitutively low as a consequence of its interaction with Keap1, which targets its degradation (Zipper and Mulcahy, 2002). Electrophiles react with key cysteine residues in Keap1, releasing Nrf2 and allowing its translocation to the nucleus. Once within the nucleus, Nrf2 complexes with coactivators such as p300, and binds to the AREs to induce gene transcription of cytoprotective enzymes, resulting in the prevention of toxicity. Activation of Nrf2 protects tissues by increasing cellular antioxidant content and suppressing inflammatory signaling pathways. Identifying novel and potent Nrf2 activators by using the AREc32 cell line to detect ARE activation by small molecules will lead to the identification and development of probes to study protective pathways in multiple tissues. These specific probes are essential to study the ARE pathway, and eventually to determine whether this pathway does activate genes that could protect against a host of diseases, including cardiovascular diseases, obesity, diabetes, Alzheimer's, and Parkinson's disease.
This project's aim is to identify novel and potent Nrf2 activators by using the AREc32 cell line to detect ARE activation by small molecules, which will lead to the identification and development of probes to study the ARE pathway. Cytotoxic compounds are flagged as active, and inactivity is desired in this assay.
NIH Chemical Genomics Center [NCGC]
NIH Molecular Libraries Probe Centers Network [MLPCN]
Assay Submitter (PI): Curtis Klaassen, University of Kansas Medical Center
Cell viability after compound treatment was measured using a luciferase-coupled ATP quantitation assay (CellTiter-Glo, Promega) in AREc32_fluc cells. The change of intracellular ATP content indicates the number of metabolically competent cells after compound treatment. AREc32_fluc cells were harvested from T225 flask and resuspended in phenol red free OPTI-MEM medium with 5% FBS. Then 5 microL of 200,000 cells/ml resuspended cells was dispensed into each well of white, solid bottom, 1536-well tissue culture-treated plates using a Multidrop Combi dispenser. After overnight culture at 37 degrees C with 5% CO2, a total of 23 nL of compounds at 7 selected concentrations from the cherry pick or positive control (40 uM stock of CDDO-IM and 2 mM of tBHQ) in DMSO was transferred to each well of the assay plate using a pintool (Kalypsys, San Diego, CA), and the plates were further incubated at 37 degrees C with 5% CO2 for 24 hours. After that, 4 microL of CellTilter-GloTM luminescent substrate mix (Promega) was added to each well. The plate was incubated at room temperature for 30 minutes. The plates were measured on a ViewLux plate reader (PerkinElmer) with clear filter.
Potency is read from the fitted curve at half-maximal effect; tags tell the direction and shape of the fitted curve.

SMILES	Potency	activity change, negative = cytotoxicity
O=C(CC(=O)c1ccccc1O)c1cccc(F)c1	inconclusive: 29.1 µM [cytotoxic, single point]	
O=[N+]([O-])c1cnc(Nc2ccc(Cl)cn2)c([N+](=O)[O-])c1	inconclusive: 29.1 µM [cytotoxic, single point]	
c1ccc(Cc2c(-c3ccco3)nc3c4ccccc4ccn23)cc1	inconclusive: 25.9 µM [cytotoxic, single point]	
CCc1cccc(NC(=O)Cn2c(=O)n3nc(-c4cccc(F)c4)nc3c3ccccc32)c1	inconclusive: 29.1 µM [cytotoxic, single point]	
COc1ccc(C=O)cc1OS(=O)(=O)c1ccccc1[N+](=O)[O-]		inactive: 3.78%
CCOC(=O)c1sc(NC(=O)c2ccco2)nc1C	inconclusive: 6.51 µM [cytotoxic, partial curve]	
CCn1c(SCC(=O)N/N=C/C=C/c2ccco2)nc2ccccc21		inactive: -2.98%
C(=Cc1cnnc2ccccc12)c1ccccc1		inactive: -3.58%
COc1ccc(Cl)cc1C(=O)O/N=C(\N)c1ccc(Cl)cc1	inconclusive: 18.4 µM [cytotoxic, single point]	
Oc1ccc2ccccc2c1/C=C/c1ccc2c(Br)cc(Br)c(O)c2n1	inconclusive: 18.4 µM [cytotoxic, single point]	
CN(C)CCNC(=O)c1cccc2ccc(-c3ccc(-c4ccccc4)cc3)nc12	inconclusive: 29.1 µM [cytotoxic, single point]	
O=C(Nc1ccc(N2CCN(C(=O)c3ccc(Cl)cc3)CC2)cc1)c1ccc([N+](=O)[O-])o1	inconclusive: 18.4 µM [cytotoxic, single point]	
O=C(NC(=S)Nc1nc(-c2ccccc2)cs1)c1cccs1		inactive: 0.308%
N#C/C(=C(/O)c1ccco1)c1nc2ccccc2[nH]1		inactive: -1.76%
O=C(N/N=C/c1ccc([N+](=O)[O-])s1)c1cccnc1	inconclusive: 25.9 µM [cytotoxic, single point]	
O=[N+]([O-])c1ccc(SCc2ccco2)cc1N1CCOCC1		inactive: -8.19%
NC(=O)c1oc2ccccc2c1NC(=O)c1ccccc1		inactive: 1.78%
COc1ccc(S(=O)(=O)N2CCN(C(=O)c3ccc([N+](=O)[O-])o3)CC2)cc1	inconclusive: 20.6 µM [cytotoxic, single point]	
O=C1c2ccccc2C(=O)c2c(Nc3ccc(CCO)cc3)ccc(O)c21	inconclusive: 18.4 µM [cytotoxic, single point]	
CS(=O)(=O)N1CCN(c2ccccc2NC(=O)c2ccc([N+](=O)[O-])o2)CC1	inconclusive: 29.1 µM [cytotoxic, single point]	
Cc1ccc(S(=O)(=O)C=CS(=O)(=O)c2ccc(C)cc2)cc1	inconclusive: 29.1 µM [cytotoxic, single point]	
O=[N+]([O-])c1ccc(N2CCN(Cc3ccccc3)CC2)c2c1no[n+]2[O-]	inconclusive: 18.4 µM [cytotoxic, single point]	

SMILES	Potency	activity change, negative = cytotoxicity
Nc1nc(-c2ccccc2)cc(-c2ccccc2O)n1	inconclusive: 23.1 µM [cytotoxic, single point]	
O=C1c2ccccc2-c2onc3ccc(Oc4ccccc4)c1c23	inconclusive: 29.1 µM [cytotoxic, single point]	
O=C(Nc1nc2c(Cl)cccc2s1)c1ccc([N+](=O)[O-])o1	inconclusive: 18.4 µM [cytotoxic, single point]	
O=c1c(Cl)c(N/N=C/c2ccc(Cl)cc2)cnn1-c1ccccc1	inconclusive: 29.1 µM [cytotoxic, single point]	
CNc1ccccc(C(=O)/C=C/c2ccccc2OC)c1=O		inactive: 0.226%
C=C1CC(COc2cc(=O)oc3ccccc23)(c2ccccc2)OC1=O (centres undefined)	inconclusive: 29.1 µM [cytotoxic, single point]	
CCOC(=O)c1ccc(NC(=O)c2nc(S(=O)(=O)Cc3ccccc3)ncc2Cl)cc1	inconclusive: 29.1 µM [cytotoxic, single point]	
CCOc1cc2c(c3c1C(c1ccccc1)N(S(=O)(=O)c1ccc(C)cc1)C3)C(=O)C=CC2=O (centres undefined)	inconclusive: 14.6 µM [cytotoxic, partial curve]	
O=C(Nc1ccccc1C(=O)NCCc1ccccc1)c1ccco1		inactive: 5.2%
COc1ccc(/C=C2/CCCC(CN(C)C)C2=O)cc1 (centres undefined)	inconclusive: 16.4 µM [cytotoxic, single point]	
O=C(NCCc1c[nH]c2ccccc12)c1ccc([N+](=O)[O-])o1	inconclusive: 29.1 µM [cytotoxic, single point]	
O=C(c1ccccc1)[C@@H]1[C@@H]2C(=O)N(c3ccc(F)cc3)C(=O)[C@@H]2C2CCCN21 (some centres undefined)		inactive: 4.57%
Cc1ccc2nc(/C(C#N)=C\c3ccc([N+](=O)[O-])o3)[nH]c2c1	inconclusive: 18.4 µM [cytotoxic, single point]	
Cn1c(N/N=C/c2cccs2)cc(=O)n(C)c1=O		inactive: 1.17%
O=C1C(=Cc2ccccc2Cl)CCc2ccccc21	inconclusive: 23.1 µM [cytotoxic, single point]	
CN1CCN(S(=O)(=O)c2ccc(Sc3nnnn3-c3ccccc3)c([N+](=O)[O-])c2)CC1	inconclusive: 29.1 µM [cytotoxic, single point]	
Oc1ccccc1C=NN=C1c2ccccc2-c2ccccc21	inconclusive: 18.4 µM [cytotoxic, single point]	
O=[N+]([O-])c1ccccc1S(=O)c1ccccc1[N+](=O)[O-]	inconclusive: 20.6 µM [cytotoxic, single point]	
O=C(Nc1ccccc1C(=O)N/N=C/c1ccco1)c1ccc(F)cc1	inconclusive: 18.4 µM [cytotoxic, single point]	
O=c1oc2ccccc2cc1-c1csc(Nc2ccc(O)cc2)n1	inconclusive: 18.4 µM [cytotoxic, single point]	
COc1cc(OC)cc(C(=O)O/N=C(\N)c2cccc(C)c2)c1	inconclusive: 20.6 µM [cytotoxic, single point]	
O=C(c1ccc([N+](=O)[O-])o1)N1CCN(c2nc3c(Cl)cccc3s2)CC1	inconclusive: 18.4 µM [cytotoxic, single point]	
